Out of some 360,000 compounds screened, about 270 (0.075%) were called active. The inconclusive results got no clear call from the source; some entries with a clear call stand among them for comparison. Calls follow the shape of the dose curve; as a rule, active = well fitted activation curve with a large enough effect; inconclusive = small, poorly fitted or top-dose-only effect; inactive = no such curve, though single readings can be large or run the other way. No potency is given beside an inconclusive call; the fits are too rough.
molecular target: Rap guanine nucleotide exchange factor 3 (Homo sapiens) (UniProt O95398); assay: qHTS for Agonist of cAMP-regulated guanine nucleotide exchange factor 3 (EPAC1): primary screen; conditions: biochemical assay; activation: at 154 µM (top of the series), 100% = response to 6.5 mM cAMP; also: nearly all actives have a fitted effect of over 60% in size
UniProt O95398, sequence (O95398 whole entry, looked up): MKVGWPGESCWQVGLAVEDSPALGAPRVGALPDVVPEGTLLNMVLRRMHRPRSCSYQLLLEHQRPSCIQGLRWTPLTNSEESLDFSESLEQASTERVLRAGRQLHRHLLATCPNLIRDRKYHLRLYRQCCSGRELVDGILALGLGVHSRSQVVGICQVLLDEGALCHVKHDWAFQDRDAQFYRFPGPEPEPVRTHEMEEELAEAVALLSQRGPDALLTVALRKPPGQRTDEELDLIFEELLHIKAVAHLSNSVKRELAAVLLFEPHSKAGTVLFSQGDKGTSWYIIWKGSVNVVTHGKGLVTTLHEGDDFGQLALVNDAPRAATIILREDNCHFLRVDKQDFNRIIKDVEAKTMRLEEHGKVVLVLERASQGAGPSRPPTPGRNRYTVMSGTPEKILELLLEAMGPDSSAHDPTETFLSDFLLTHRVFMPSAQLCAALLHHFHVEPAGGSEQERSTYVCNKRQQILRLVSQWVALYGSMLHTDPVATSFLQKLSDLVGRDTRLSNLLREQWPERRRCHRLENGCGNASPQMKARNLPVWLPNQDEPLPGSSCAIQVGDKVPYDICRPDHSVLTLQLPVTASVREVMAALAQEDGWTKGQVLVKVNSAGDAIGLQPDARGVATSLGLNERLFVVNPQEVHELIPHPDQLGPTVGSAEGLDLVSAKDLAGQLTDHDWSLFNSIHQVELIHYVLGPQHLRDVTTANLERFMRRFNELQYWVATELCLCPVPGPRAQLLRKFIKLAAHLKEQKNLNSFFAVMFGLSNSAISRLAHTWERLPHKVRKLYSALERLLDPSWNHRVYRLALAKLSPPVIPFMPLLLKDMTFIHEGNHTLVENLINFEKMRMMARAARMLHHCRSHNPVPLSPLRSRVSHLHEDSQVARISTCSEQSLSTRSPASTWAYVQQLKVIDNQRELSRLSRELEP
Outline: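 Multi-concentration qHTS readout: loss of Rap1B-bound BODIPY-GDP fluorescence driven by 100 nM EPAC1 with excess GDP (50 uM), monitored kinetically at room temperature; agonist response expressed relative to 6.5 mM cAMP.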
Potency is read from the fitted curve at half-maximal effect; tags tell the direction and shape of the fitted curve.

Compound	Potency	activation
CCN1/C(=C/C=C/c2oc3ccc(-c4ccccc4)cc3[n+]2CC)Oc2ccc(-c3ccccc3)cc21	active: 39.8 µM	–
CC(=O)NNc1cc(N2CCOCC2)nc(N2CCOCC2)n1	inconclusive [activator, partial curve, poor fit]	–
C(=N\N(c1ccccc1)c1ccccc1)/c1ccc2c(c1)OCO2	–	inactive: 11.7%
Cn1c(NCc2c(O)ccc3ccccc23)nc2ccccc21	inconclusive [activator, partial curve]	–
CN(C)S(=O)(=O)c1cccc(C(=O)Nc2cc(S(=O)(=O)N3CCOCC3)ccc2N2CCCC2)c1	–	inactive: -3.54%
Cc1ccc(S(=O)(=O)N2CCN(C(=O)C(C)Cn3cncn3)CC2)cc1 (centres undefined)	–	inactive: 1.69%
CCc1ccc(NS(=O)(=O)c2cc3c4c(c2)CCN4C(=O)CC3)cc1	inconclusive [activator, single point]	–
O=C(N=c1ccn(-c2nc3ccccc3nc2NS(=O)(=O)c2ccccc2)cc1)c1cccs1	inconclusive [activator, single point]	–
COC(=O)C[C@@H]1OC[C@H](C)N1S(=O)(=O)c1ccc(C)cc1	–	inactive: 3.99%
Cc1ccc(NC(=O)CCCn2nc(C)c3c(C)n(-c4ccccc4)nc3c2=O)c(Cl)c1	–	inactive: 4.94%
CCn1c(-c2cc(-c3ccc(OC(C)C)cc3)nc3ccccc23)n[nH]c1=S	inconclusive [activator, partial curve]	–
CC(=O)Nc1ccc(NC2=C/C(=N/S(=O)(=O)c3cccs3)c3ccccc3C2=O)cc1	–	inactive: 9.71%
CSc1nnc(NC(=O)c2cccc(S(=O)(=O)N3CCOCC3)c2)s1	–	inactive: 0.738%
Cc1ccc(C)c(C(Nc2ccccc2)c2ccc3ccc(C)nc3c2O)c1 (centres undefined)	–	inactive: 6.9%
O=C(COC(=O)c1ccc(O)cc1O)Nc1nnc(-c2ccccc2)o1	inconclusive [activator, single point]	–
C=CCn1cnc2scc(-c3ccc(C)c(C)c3)c2c1=O	–	inactive: 0.717%
COc1ccc2[nH]cc(/C=C(/C#N)S(=O)(=O)c3ccccc3)c2c1	inconclusive [activator, partial curve]	–
CCOC(=O)/C(C#N)=C\c1ccc(N2CCN(C/C=C/c3ccccc3)CC2)cc1	active: 89.1 µM	–
O=S(=O)(/N=C(/c1ccccc1)N1CCOCC1)c1ccc(F)cc1F	–	inactive: 4.17%
CCOC(=O)c1ccc2c(c1)N(C)C(=O)c1ccccc1S2	–	inactive: 4.83%
O=C1NC(Nc2nc3ccccc3s2)(C(F)(F)F)C(=O)N1C1CCCCC1 (centres undefined)	inconclusive [activator, full curve, poor fit]	–
CCOc1ccc(NC(=O)CNc2ccc(C)cc2Cl)cc1	inconclusive [activator, full curve, poor fit]	–

Compound	Potency	activation
Cc1ccc(Cn2nc(C)c(C(=O)NCC(c3cccs3)N3CCOCC3)c2Cl)cc1 (centres undefined)	inconclusive [activator, partial curve]	–
CCc1c(O)nc(SCC(=O)N2CCCCC2)n(-c2ccccc2C)c1=O	–	inactive: 7.38%
COc1ccc(OC)c(S(=O)(=O)n2cnc3cc(C)c(C)cc32)c1	inconclusive [activator, partial curve]	–
Nc1c(C(=O)Nc2ccc3c(c2)OCCO3)nnn1Cc1cccc(Br)c1	inconclusive [activator, partial curve, poor fit]	–
Cc1ccc(C)c(S(=O)(=O)Nc2ccc(C(=O)NCC(c3ccco3)N(C)C)cc2)c1 (centres undefined)	active: 112 µM	–
CC1(C)CC(n2c(NCCO)nc3c(c2=O)C2(CCCC2)Cc2ccccc2-3)CCO1 (centres undefined)	inconclusive [activator, partial curve]	–
C#CCOCCOCCOCCNc1nc(N2CCN(C(=O)CCCCCCCCCCNC(=O)[C@@H](CCSC)n3cc(CCO)nn3)CC2)nc(N2CCN(C(=O)CCCCCCCCCCNC(=O)[C@H]([C@@H](C)CC)n3cc(CCCCCN)nn3)CC2)n1	inconclusive [activator, single point]	–
Cc1cc(-c2csc3nc[nH]c(=S)c23)cc(C)c1C	–	inactive: 10.7%
CN(C)NC(=S)Nc1ccc2nc(-c3ccccn3)c(-c3ccccn3)nc2c1	–	inactive: 12.1%
C=CC1=C2C=C(C3CC3)N(C3CC3)C=C2C(=O)C(C)(OC(=O)c2ccco2)C1=O (centres undefined)	–	inactive: -12.9%
CC(OC(=O)c1nn(C)c(=O)c2ccccc12)C(=O)NC1CCCCC1C (centres undefined)	inconclusive [activator, single point]	–
CCC1(c2ccccc2)NC(=O)N(CC(=O)N(C)CC(=O)Nc2c(C)cccc2C)C1=O (centres undefined)	inconclusive [activator, full curve, poor fit]	–
CCCCCCc1cc2cc(-c3nnc(-c4ccccc4OC)o3)c(=O)oc2cc1O	inconclusive [activator, single point]	–
O=C(COc1ccccc1Cl)Nc1ccccc1C(=O)NC1CC1	inconclusive [activator, full curve]	–
O=C(N/N=C\c1c(O)ccc2ccccc12)c1cncc(Br)c1	inconclusive [activator, partial curve]	–
O=C1S/C(=C\c2ccc(O)c([N+](=O)[O-])c2)C(=O)N1Cc1cccc([N+](=O)[O-])c1	–	inactive: 10.2%
COc1ccc(-c2cc(C(=O)N(C)CC(=O)Nc3ccccc3Cl)c3ccccc3n2)cc1OC	inconclusive [activator, single point]	–
O=C(CN1C(=O)NC2(CCCC2)C1=O)Nc1nc2c(F)cc(F)cc2s1	inconclusive [activator, full curve, poor fit]	–
O=C(NC(=S)NCCc1ccccc1)C1CCCCC1	–	inactive: 4.91%
CCOC(=O)c1sc2nc3c(SCC(=O)O)cc(C(=O)c4ccccc4O)cn3c(=O)c2c1C	–	inactive: 4.53%
CC1=N/C(=C\c2ccc([N+](=O)[O-])cc2)C(=O)N1c1ccc(F)cc1F	–	inactive: -4.55%
CC(=O)[C@]1(O)Cc2c(O)c3c(c(O)c2[C@@H](O[C@H]2C[C@H](N)[C@H](O)[C@H](C)O2)C1)C(=O)c1ccccc1C3=O	active: 100 µM	–

— PubChem BioAssay AID720707 (National Center for Advancing Translational Sciences (NCATS), 2013)
